31 molecules from PubChem BioAssay AID1745853 (National Center for Advancing Translational Sciences (NCATS), 2022) can be followed below.

The list shows a part of the results. Shown are side measurements of this screen, not its main read-out; they come without a call.

Common to all, as to assay: Primary Screen for Target Class Profiling of Small Molecule Inhibitors of Methyltransferases
In assay [1] the target is Glycine N-methyltransferase (Homo sapiens) (UniProt Q14749). The settings on record: purified enzyme, MTase-Glo SAH luminescence; measured here: GNMT inhibition; at 40 µM; stronger effect = lower value. An outline of the steps: (§1)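 Each enzyme was assayed with SAM and its substrate. SAH formation detected by MTase-Glo luminescence; single-point 40 uM screen[…].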

Assay [2] concerns the target Guanidinoacetate N-methyltransferase (Homo sapiens) (UniProt Q14353). The following applies: purified enzyme, MTase-Glo SAH luminescence; measured here: GAMT inhibition; at 40 µM; stronger effect = lower value. An outline of the steps:
as §1

Assay [3] addresses Histamine N-methyltransferase (Homo sapiens) (UniProt P50135). The following applies: purified enzyme, MTase-Glo SAH luminescence; measured here: HNMT inhibition; at 40 µM; stronger effect = lower value. The gist of the method:
as §1

Assay [4] addresses Nicotinamide N-methyltransferase (Homo sapiens) (UniProt P40261). The following applies: purified enzyme, MTase-Glo SAH luminescence; measured here: NNMT inhibition; at 40 µM; stronger effect = lower value. An outline of the steps:
as §1

Assay [5] deals with Phenylethanolamine N-methyltransferase (Homo sapiens) (UniProt P11086). The following applies: purified enzyme, MTase-Glo SAH luminescence; measured here: PNMT inhibition; at 40 µM; stronger effect = lower value. An outline of the steps:
as §1
% is scaled to controls: 0 for no effect and ±100 for the full control effect.

Take `CN1C(=O)c2cc(C(=O)N3CCN(c4ccccc4)CC3)nn2CC1(C)C(=O)NC1CCCC1` (stereo not given): the activity change, negative = inhibition is 6.15% in assay [1]; 3.1% in assay [2]; 8.94% in assay [3]; 10.9% in assay [4]; 3.89% in assay [5].

Regarding `COc1ccc(CNC(=O)c2cc3n(n2)CC(C)(C(=O)NC2CCCC2)N(C)C3=O)c(OC)c1` (stereo not given), the activity change, negative = inhibition is -3.35% in assay [1]; -1.01% in assay [2]; -2.43% in assay [3]; -4.43% in assay [4]; -0.499% in assay [5].

Consider `Cc1cc(C)cc(NC(=O)Cn2nc3n(C)c(=O)c4ccc(C(=O)NC5CCCCC5)cc4n3c2=O)c1`, for which the activity change, negative = inhibition in assay [1] is -0.972%; in assay [2], 1.38%; in assay [3], 2.02%; in assay [4], -2.88%; in assay [5], -2.38%.

For `Cc1nn(-c2ccccc2)c2c1C(C1CC1)N(C1CCN(Cc3cccc(OC(F)(F)F)c3)CC1)C2=O` (stereo not given), the activity change, negative = inhibition was -0.219% in assay [1]; 0.094% in assay [2]; 0.689% in assay [3]; -0.751% in assay [4]; -2.29% in assay [5].

As for `CCCn1c(=O)c2ccc(C(=O)NC3CCCC3)cc2n2c(=O)n(CC(=O)NC3CCCCC3)nc12`, the activity change, negative = inhibition in assay [1] is -0.543%; in assay [2] it was 0%; in assay [3], 1.72%; in assay [4], 3.53%; in assay [5] it was 4.65%.

As to `CC1=NOC2(CCN(Cc3ccc(N(C)C)cc3)C2)C1` (stereo not given), the activity change, negative = inhibition was -5.79% in assay [1]; -4.12% in assay [2]; -3.46% in assay [3]; -8.08% in assay [4]; 0.833% in assay [5].

Turning to `O=C1Nc2ccc(I)cc2/C1=C/c1cc(Br)c(O)c(Br)c1`, the activity change, negative = inhibition in assay [1] is -91.3%; in assay [2], -56%; in assay [3], -84.7%; in assay [4], -77.2%; in assay [5], -54.7%.

In the case of `Cc1ccccc1CCNC(=O)CCn1ccc2cc(S(=O)(=O)N3CCCC3)ccc21`, the activity change, negative = inhibition is -4.02% in assay [1]; 6.22% in assay [2]; -3.83% in assay [3]; -10.7% in assay [4]; 0.43% in assay [5].

As for `CC(C)(C)c1cc2n(n1)CC(C)(C(=O)NC1CCCCC1)N(Cc1ccccc1Cl)C2=O` (stereo not given), the activity change, negative = inhibition in assay [1] was -9.75%; in assay [2] it was 1.67%; in assay [3], 5.41%; in assay [4] it was 0.4%; in assay [5], -2.55%.

In the case of `CC1CCN(S(=O)(=O)c2ccc3c(ccn3CC(=O)N3CCc4ccccc4C3)c2)CC1`, the activity change, negative = inhibition is -1.11% in assay [1]; 6.08% in assay [2]; -6.72% in assay [3]; 2.82% in assay [4]; -0.195% in assay [5].

`Cc1ccccc1CNC[C@H]1Cn2c(-c3ccccc3)cnc2CO1`: the activity change, negative = inhibition in assay [1] was -15.5%; in assay [2], -2.97%; in assay [3], -23.1%; in assay [4], -17.8%; in assay [5] it was -11.8%.

For the molecule `CC(C)(CC(=O)O)CC(=O)N1CCN2C(=O)N(CCc3cccs3)C(=O)[C@H]2C1`, the activity change, negative = inhibition in assay [1] is -1.77%; in assay [2] it was -2.63%; in assay [3], 0.854%; in assay [4], 3.06%; in assay [5] it was -1.12%.

In the case of `COc1ccc(OC)c(C2C(C#N)=C(N)Oc3n[nH]c(-c4ccc5ccccc5c4)c32)c1` (stereo not given), the activity change, negative = inhibition in assay [1] is 0.481%; in assay [2] it was 7.8%; in assay [3], 9.58%; in assay [4], -3.55%; in assay [5], 6.36%.

On to `CNC(=O)c1cccc2cc(Oc3ccnc4cc(OCC5(N)CC5)c(OC)cc34)ccc12`, for which the activity change, negative = inhibition in assay [1] is -4.12%; in assay [2], -4.96%; in assay [3], -40.3%; in assay [4], -22.6%; in assay [5], -7.07%.

Take `COc1cc(C)c(-c2nc(CN3CCOC(CCN)C3)c(C)o2)cc1C` (stereo not given): the activity change, negative = inhibition in assay [1] is -6.78%; in assay [2], -7.9%; in assay [3], -3.47%; in assay [4] it was -4.74%; in assay [5], -9.84%.

For the molecule `CCCCC(=O)N(C)CC1CCOC1` (stereo not given), the activity change, negative = inhibition in assay [1] is -6.65%; in assay [2], -11.3%; in assay [3] it was -5.3%; in assay [4], -20.7%; in assay [5] it was -10.1%.

For the molecule `CCCCN1C(=O)c2cc(C(=O)NCc3ccc(OC)c(OC)c3)nn2CC1(C)C(=O)NC1CCCC1` (stereo not given), the activity change, negative = inhibition in assay [1] worked out at 7.21%; in assay [2], 1.36%; in assay [3], 4.22%; in assay [4] it was 7.22%; in assay [5] it was 7.49%.

Regarding `Clc1ccc2c(c1)C1C=CCC1C(c1ccccc1)N2` (stereo not given), the activity change, negative = inhibition in assay [1] was -12.5%; in assay [2], -6.62%; in assay [3], -8.2%; in assay [4], -11.7%; in assay [5], -18.7%.

On to `COC(=O)c1cc2n(n1)CC(C)(C(=O)NC1CCC(C)CC1)N(c1ccc(C(C)C)cc1)C2=O` (stereo not given), for which the activity change, negative = inhibition in assay [1] was -2.46%; in assay [2], 0%; in assay [3], 6.44%; in assay [4], -1.65%; in assay [5], 0.548%.

With `CCCCNC(=O)CCn1ccc2cc(S(=O)(=O)N3CCCC3)ccc21`, the activity change, negative = inhibition worked out at 2.63% in assay [1]; 0.279% in assay [2]; 0.899% in assay [3]; 7.8% in assay [4]; 2.2% in assay [5].

For `CC(=O)Nc1c2n(c3ccccc13)CC(C)(C(=O)NC1CCCCCC1)N(C1CCC(C)CC1)C2=O` (stereo not given), the activity change, negative = inhibition is 0.405% in assay [1]; 0.845% in assay [2]; 0.447% in assay [3]; -5.98% in assay [4]; 1.11% in assay [5].

Turning to `COc1ccc(CCNC(=O)C2(C)CCOCC2)cc1`, the activity change, negative = inhibition in assay [1] was 0.66%; in assay [2], 0.698%; in assay [3], 3.01%; in assay [4], -0.766%; in assay [5], -0.56%.

For the molecule `CCOC(=O)c1ccc2c(c1)[C@@H]1C=CC[C@@H]1[C@H](c1ccccc1C(F)(F)F)N2`, the activity change, negative = inhibition was -4.04% in assay [1]; 3.42% in assay [2]; 0.637% in assay [3]; -6.97% in assay [4]; -5.22% in assay [5].

Regarding `Cc1cccc(CNC(=O)C2(C)Cn3cnc(C(=O)NCc4ccc(OC(C)C)cc4)c3C(=O)N2C2CC2)c1` (stereo not given), the activity change, negative = inhibition in assay [1] turned out to be 3.6%; in assay [2], 2.84%; in assay [3], 16.1%; in assay [4], 1.89%; in assay [5], 10.2%.

Consider `N#Cc1ccc(COc2ccc(-c3cccc4nc(NC(=O)C5CC5)nn34)cc2)cn1`, for which the activity change, negative = inhibition in assay [1] is -17.1%; in assay [2], 6.92%; in assay [3], -0.923%; in assay [4] it was -10.8%; in assay [5] it was -4.9%.

As for `CC(C)CCNC(=O)C1(C)Cn2nc(C(=O)NCc3ccccc3Cl)cc2C(=O)N1C` (stereo not given), the activity change, negative = inhibition in assay [1] was -1.87%; in assay [2], 3.73%; in assay [3] it was 1.33%; in assay [4], 2.68%; in assay [5], -1.62%.

Take `FC(F)(F)Oc1ccc(-c2ccc3nnc(C(F)(F)F)n3c2)cc1`: the activity change, negative = inhibition in assay [1] was -5.27%; in assay [2] it was -13.3%; in assay [3], 2.91%; in assay [4] it was -26.1%; in assay [5], -7.85%.

With `CCCn1c(=O)c2ccc(C(=O)NCC(C)C)cc2n2c(SCC(=O)Nc3cccc(F)c3)nnc12`, the activity change, negative = inhibition in assay [1] was 3.4%; in assay [2] it was 0%; in assay [3], 5.99%; in assay [4], -12.7%; in assay [5] it was -0.231%.

Take `CCc1ccc(CN2C(=O)c3cc(C(C)(C)C)nn3CC2(C)C(=O)NCc2ccccc2)cc1` (stereo not given): the activity change, negative = inhibition in assay [1] is 0.983%; in assay [2], 0%; in assay [3], 1.51%; in assay [4], 1.03%; in assay [5], -4.07%.

On to `CC(=O)C1(C)CCC2C3C=C(C)C4=CC(=O)CCC4(C)C3CCC21C` (stereo not given), for which the activity change, negative = inhibition is -18.7% in assay [1]; 8.07% in assay [2]; -1.24% in assay [3]; -28.8% in assay [4]; -7.53% in assay [5].

`COc1cccc(CN2C(=O)c3nc4ccccc4n3CC2(C)C(=O)NC2CCCCC2)c1` (stereo not given): the activity change, negative = inhibition in assay [1] came to 4.89%; in assay [2], 0%; in assay [3] it was 4.11%; in assay [4], 7.21%; in assay [5], 0.496%.
